In all, about 33,000 sequences were measured (“E-score (-0.5 to 0.5)”: median about -0.035, highest 2% from about 0.35 on). The list shows a part of the results.
The sequences below were run against T1, Pdr3 (UniProt P33200) (assay: PBM E-score (8-mer binding enrichment) (E-score (-0.5 to 0.5)); higher = stronger / more preferred TF binding; most listed sequences are background and not binding sites). Conditions: protein concentration: 200 nM; construct: GST-full length.
T1 sequence: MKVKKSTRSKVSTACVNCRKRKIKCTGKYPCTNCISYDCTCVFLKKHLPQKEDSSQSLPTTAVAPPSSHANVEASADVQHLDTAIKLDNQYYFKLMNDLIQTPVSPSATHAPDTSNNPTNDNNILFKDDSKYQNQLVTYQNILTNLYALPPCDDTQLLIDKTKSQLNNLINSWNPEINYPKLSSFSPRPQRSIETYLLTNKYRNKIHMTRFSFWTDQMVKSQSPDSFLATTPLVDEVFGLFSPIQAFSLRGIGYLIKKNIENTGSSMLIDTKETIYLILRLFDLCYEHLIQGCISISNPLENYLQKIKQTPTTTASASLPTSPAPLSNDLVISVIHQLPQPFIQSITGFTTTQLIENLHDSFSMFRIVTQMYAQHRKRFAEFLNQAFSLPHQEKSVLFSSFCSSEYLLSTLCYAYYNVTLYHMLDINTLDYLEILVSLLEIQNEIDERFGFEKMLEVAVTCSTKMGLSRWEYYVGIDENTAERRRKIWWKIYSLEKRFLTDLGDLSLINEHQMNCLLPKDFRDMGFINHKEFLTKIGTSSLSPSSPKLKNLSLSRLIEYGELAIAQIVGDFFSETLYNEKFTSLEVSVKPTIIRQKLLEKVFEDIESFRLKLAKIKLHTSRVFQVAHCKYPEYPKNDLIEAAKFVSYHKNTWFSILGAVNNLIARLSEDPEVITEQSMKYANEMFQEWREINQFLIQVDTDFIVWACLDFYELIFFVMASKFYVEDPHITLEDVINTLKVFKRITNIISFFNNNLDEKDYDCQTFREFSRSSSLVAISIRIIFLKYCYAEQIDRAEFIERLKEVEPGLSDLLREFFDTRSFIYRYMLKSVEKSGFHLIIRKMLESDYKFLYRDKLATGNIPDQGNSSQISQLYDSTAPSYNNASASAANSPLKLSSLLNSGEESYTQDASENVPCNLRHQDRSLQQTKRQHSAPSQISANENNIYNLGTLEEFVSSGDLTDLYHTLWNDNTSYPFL
In short: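 For each ungapped eight-base word taken together with its reverse complement, the Universal PBM Analysis Suite assigned an E-score. Binding data came from GST-tagged yeast transcription factors, applied at about 100-200 nM, on universal all-10-mer Agilent arrays made double-stranded by primer extension. Fluorescent anti-GST marked bound protein, and scans were normalised with masliner.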

Sequence | PBM E-score
CCTTAAGA | -0.315
GAACAGAA | -0.00888
GTAAAGTA | -0.1
CAAGTGTC | -0.197
AACCAGAG | -0.12
CCAATGTA | -0.147
GCACGACC | -0.0364
AGTTGGAT | -0.0658
CGACATAC | 0.0342
GCAGGATA | -0.0657
AGTTACAC | -0.0568
GACGGCAC | 0.0758
ATATAGAG | -0.0836
ACCTCCTA | -0.192
CAGAATCG | 0.0989
ATTTATAC | 0.16
AATTGGCC | -0.0405
GCCTTCCA | -0.186
TATCATGA | -0.238
GACCCGAC | 0.21
ACCTTATA | -0.029
CCAAACGG | 0.24
ACCTAGAA | -0.107
CGTTACTC | -0.111
CCGGTTAA | 0.275

Sequence | PBM E-score
CGCAGGTA | -0.0643
AGCCGGAC | 0.345
GGGGAGAA | 0.0174
CGCCCCCC | -0.141
ACAATTCA | -0.105
TCCTGTAA | -0.0914
ACACCTGC | -0.102
ATGTATTC | 0.185
ACCTACTG | -0.153
CTGCGAGA | -0.178
GATCACCC | -0.0514
ACTGCTGG | -0.234
CGTGCACC | 0.00656
ACGAGTAA | 0.0153
GCTCAGTA | -0.0363
ATACAGCG | -0.116
CTTATAAC | -0.111
AAAGTTTG | -0.0158
CTACCCAC | -0.189
CTCGGCCA | 0.18
ACGTGCTC | 0.00194
CAGAAGCA | -0.0683
ACGGCTCA | 0.039
ATACTAAC | 0.148
AGCGAGAA | -0.065

Sequence | PBM E-score
ACGTATCG | -0.108
TCAACAGA | 0.0244
CGCAGTGC | -0.141
CGGAATTC | 0.434
ACCGTGCC | 0.0603
CTTATTAC | -0.161
CCCGGGCG | 0.421
ACGTACTG | -0.121
CACGTAGG | -0.172
AGTGGAAA | -0.0658
AAGCAGAC | -0.156
CTTCATAC | 0.0678
ATCAACAC | 0.0264
ACATCTAG | -0.155
TCTAGACA | -0.138
CCGTGCGA | 0.24
CTGAAAGA | -0.208
ACCATGGC | -0.00532
AAAAGATA | -0.0521
CCATCCCG | 0.31
CTTATCCA | -0.00809
AACTCCTG | -0.193
AACCGATA | 0.0731
TATCTCAA | -0.00609
GATTTGCA | 0.0408

Sequence | PBM E-score
GGCAATAC | 0.143
CGAGACCG | 0.171
GCCTTCGA | -0.173
GATGGCGC | 0.0279
CGTGGATC | 0.0458
ATAGGCAT | -0.0202
CTGTCAAA | -0.186
GTCACACA | -0.0225
ACTACTAT | 0.132
GCGAGTCC | -0.0398
CTGTCGCC | 0.0223
ATCGGGCC | 0.0776
GAGCTCTA | 0.137
CGCCTGGA | -0.0178
AATCAACA | 0.115
CTTGAGCC | -0.219
ACGTAAGA | -0.219
TAATTCAA | -0.0594
GACTCGAA | -0.181
CCTAGCTC | 0.0142
TAATCGAA | 0.0314
GGTTTTAA | -0.00211
AGACCCTG | -0.293
AACATGCA | -0.043
CCACTGCA | -0.0534

Sequence | PBM E-score
CAAGATGG | -0.0684
GGCTTGAA | 0.0178
CCAACCCG | 0.282
CACTTTGG | -0.0908
TCGATAAA | 0.0139
CATCTAAG | -0.0771
AGACCTAC | -0.0832
AGGGGTTA | -0.144
GCCTTCAC | -0.0401
CAAATTGG | -0.115
AAATGGGA | -0.167
GCGAAAAA | 0.0463
AGACGGCC | 0.109
CCGGTTGC | 0.313
ACACCGTG | -0.00244
AATGGCGA | 0.17
GGTGTGAA | 0.0718
CGTTGCAG | -0.174
ACATTAGA | -0.151
CCTAATAG | -0.0343
GTGCTTTA | -0.0577
CACACATG | -0.176
GAGAGCGA | 0.0323
CCTTTGCC | -0.186
AATTCGTA | 0.0286

Sequence | PBM E-score
TCGACTCA | 0.0706
CAAGCCGG | 0.316
ACGCCTAT | -0.114
AAGCTTTC | 0.065
CGCGACCG | 0.141
GAGAGCGC | 0.0524
ACGGGCGG | 0.21
TCAGCAAA | -0.08
ATTTCCTA | -0.0987
AAGTTTCT | -0.13
ATCCGTCA | 0.305
ATGTTACA | -0.0716
CCAGATTA | -0.00749
ACTAGTTC | -0.0393
ACCCCTTG | -0.233
ATATACAG | 0.0396
AAAAGTAC | -0.087
GGTTAGTA | 0.148
GCATCGTA | -0.00957
AGTTCGGG | 0.246
GCAGTCTA | -0.209
ATCTGCAG | 0.0199
GCAGCTAA | -0.106
GAAATTAC | 0.0418
CGCAGTAA | 0.0584

Sequence | PBM E-score
GCGAACGC | -0.00654
CAGCTTGC | -0.0481
CACTGTTC | -0.148
TAAGTTCA | -0.112
CTAGCAGC | -0.146
ACCCGTGG | 0.282
ATCGATAA | 0.0678
CAATATGG | -0.121
AACCTACG | -0.0983
GTTTTGGA | -0.0915
CTCGACAA | -0.0925
ACACGGAA | 0.438
CAGAGCCA | -0.253
ATCCTTAC | -0.0234
ATAGATGA | -0.166
CGGGCAAA | 0.241
AGGCTTTA | -0.36
GACGAAAA | 0.131
AGTTAGTA | -0.106
ACTGCTAC | -0.195
AGCCGGCT | 0.315
AGGATCTG | -0.32

Reference: the supplement of paper PMC3334620
